# “And” between values parts separate entries of the source, which are not always exact repeats. Equal values may be shown once. Out of some 340,000 compounds screened, about 12,000 (3.5%) were called active. Inconclusive means that the source gave no clear call. Such entries were picked first, then a sample of the others. The call rests on the fitted dose curve; in most records, active means well fitted inhibition curve with a large enough effect; inconclusive means small, poorly fitted or top-dose-only effect, or another doubt; inactive means no such curve, though single readings can be large or run the other way. Potencies beside an inconclusive call are fits to weak or partial responses and may not hold up.
# Assay: qHTS Assay for Inhibitors of Hepatitis C Virus (HCV)
# Conditions: Huh7.5.1 HCVcc-Cre (HCVcc is cell-culture hepatitis C virus) infection, luciferase reporter, 44 h; series mostly up to 41.8 µM
# In short: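 A cell-based infection assay in which seeded cells (1,000 per well) receive test compound after 4 h, are inoculated with HCVcc-Cre at approximately 0.5 moi, and are incubated 44 h before luminescence detection.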
# Potency means the concentration at half of the fitted maximal effect; tags describe the fitted curve by direction and shape.
row,Structure (SMILES),Potency
1,Cn1nc(C(F)(F)F)c(C(=O)Nc2ccc(F)cc2F)c1Sc1cccc(Cl)c1,inactive
2,COc1ccc(C2CC(c3ccccc3)=NN2C(=O)COC(=O)c2cccnc2Cl)cc1 (stereo unspecified),"inconclusive: 5.01 µM [inhibitor, full curve]"
3,COc1ccc(CNCC(O)(c2ccc(Cl)cc2)c2ccc(Cl)cc2)cc1OC,active: 12.6 µM
4,COc1ccccc1N1C(=O)CC(Sc2ccccc2N)C1=O (stereo unspecified),inactive
5,O=C(/C=C/c1ccco1)OCC1CCCN2CCCCC12 (stereo unspecified),"inconclusive: 5.01 µM [inhibitor, single point]"
6,O=C(O)C(Cc1c[nH]c2ccccc12)N1C(=O)C2C3c4ccccc4C(c4ccccc43)[C@@H]2C1=O (stereo partly specified),inactive
7,O=C(NNc1nc(-c2ccccc2)cs1)c1ccco1,"inconclusive: 3.98 µM [inhibitor, full curve, poor fit]"
8,CN(CCO)c1nc(N)c2c(N)nc3c(c2c1C#N)CC(=O)N3Cc1cccs1,"inconclusive: 31.6 µM [inhibitor, single point]"
9,COc1ccc(C(c2sc3nc(C)nn3c2O)N2CCC(C(N)=O)CC2)cc1OC (stereo unspecified),"inconclusive: 1 µM [inhibitor, partial curve]"
10,O=C(Nc1ccc(NC(=O)c2cccs2)cc1)c1ccco1,inactive
11,Brc1ccccc1CN1CCC(N2CCCCC2)CC1,active: 3.98 µM
12,CC(=O)c1ccc(OCCCC(=O)Nc2ccc(C)c(S(=O)(=O)N3CCOCC3)c2)cc1,"inconclusive: 7.94 µM [inhibitor, partial curve, poor fit]"
13,CC(=O)N/N=C/c1cc([N+](=O)[O-])ccc1OCCOc1ccccc1,"inconclusive: 12.6 µM [inhibitor, partial curve]"
14,COc1ccc(C(=O)OCC(=O)Nc2ccc(OC(F)F)cc2)c(OC)c1,"inconclusive: 22.4 µM [inhibitor, single point]"
15,NC(=O)c1cc([N+](=O)[O-])c(Cl)cc1NCc1ccccn1,"inconclusive: 31.6 µM [inhibitor, single point]"
16,CN1C(=O)CSc2ccc(NC(=O)N3CCc4ccccc43)cc21,"inconclusive: 11.2 µM [inhibitor, partial curve]"
17,CC1CCN(C(=O)c2ccc(N(C)S(C)(=O)=O)cc2)CC1,inactive
18,COc1ccc(-c2cc(C(=O)N/N=C(\C)c3cccnc3)c3ccccc3n2)c(OC)c1,inactive
19,C=CCSc1nc(N)c(C#N)c(-c2ccc(C)cc2)c1C#N,"inconclusive: 11.2 µM [inhibitor, single point]"
20,CCN1CCN(C(c2cccs2)C(C)NC(=S)NC2CCCCC2)CC1 (stereo unspecified),"inconclusive: 31.6 µM [inhibitor, single point]"
21,O=C1NCCN(Cc2ccc(-c3ccccc3)cc2)C1CC(=O)N1CCN(CCO)CC1 (stereo unspecified),inactive
22,NC(=O)c1c(NC(=O)c2ccncc2)sc2c1CCCC2,active: 12.6 µM
23,C=Cn1nc(C)c2ccccc2c1=O,"inconclusive: 5.01 µM [inhibitor, single point]"
24,CO/N=C(\Cn1ncc(N2CCCC2)c(Br)c1=O)c1ccc(Cl)cc1,"inconclusive: 31.6 µM [inhibitor, single point]"

row,Structure (SMILES),Potency
1,Cc1oc(-c2ccc(Cl)cc2)nc1CS(=O)CC(=O)NCCCN1CCN(Cc2ccccc2)CC1 (stereo unspecified),active: 1.26 µM
2,O=C(COC(=O)Cc1c(Cl)cccc1Cl)Nc1ccc2[nH]c(=O)[nH]c2c1,"inconclusive: 0.501 µM [inhibitor, full curve]"
3,COc1ccc2c(CCNC(=O)/C=C/c3ccc(OC)c(OC)c3)c[nH]c2c1,"inconclusive: 31.6 µM [inhibitor, single point]"
4,COc1ccccc1N1CCN(C(=O)Cc2c(C(=O)O)[nH]c3ccc(Cl)cc23)CC1,"inconclusive: 31.6 µM [inhibitor, partial curve, poor fit]"
5,CCOC(=O)c1ccc(N2C(=O)CC(N(C)CCc3ccc(OC)c(OC)c3)C2=O)cc1 (stereo unspecified),"inactive and inconclusive: 8.91 µM [inhibitor, partial curve]"
6,CCC1CCCCN1C(=S)Nc1ccc(SC(F)F)cc1 (stereo unspecified),"inconclusive: 11.2 µM [inhibitor, single point]"
7,CCOC(=O)c1cccc(NC(=O)CCS(=O)(=O)c2ccc(Br)s2)c1,inactive
8,CCc1c(C#N)c(SCCC(=O)Nc2ccc(F)cc2)nc2c1C(=O)CC(C)(C)C2,active: 11.2 µM
9,Cn1cc(SCC(=O)NCCc2ccccc2)c2ccccc21,"inconclusive: 0.501 µM [inhibitor, full curve, poor fit]"
10,C#CCNC(=O)C1=C[C@H](c2ccc(Br)cc2)C[C@H](OCCCCO)O1,inactive
11,OCc1nc2ccccc2n1C/C=C/c1ccccc1,"inconclusive: 11.2 µM [inhibitor, single point]"
12,CCOC(=O)c1cnc2ccccc2c1NCc1ccco1,"inconclusive: 11.2 µM [inhibitor, partial curve]"
13,Cc1onc(-c2ccccc2)c1C(=O)OCC(=O)Nc1ccc2c(c1)OCO2,"inconclusive: 10 µM [inhibitor, partial curve]"
14,CCOCCCNC(=O)c1cc(Sc2nnc(C)s2)nc2ccccc12,active: 10 µM
15,CCCCn1c(N)c(N(CCC(C)C)C(=O)COC(=O)/C=C/c2ccc(F)cc2)c(=O)[nH]c1=O,"inconclusive: 22.4 µM [inhibitor, single point]"
16,CCOC(=O)c1ccc(Nc2ncnc3c2cnn3C)cc1,inactive
17,COC(=O)Cc1[nH]nc2c1C(C1C=CCCC1)C(C#N)=C(N)O2 (stereo unspecified),"inconclusive: 31.6 µM [inhibitor, single point]"
18,COc1ccc(OC)c(NC(=O)c2cc3c(=O)n4ccccc4nc3n2C)c1,"inconclusive: 14.1 µM [inhibitor, single point]"
19,C=C1N(C)c2cc([N+](=O)[O-])c(N)cc2C1(C)C,"inconclusive: 8.91 µM [inhibitor, partial curve]"
20,CCCCn1nnc(NC(=O)c2ccc([N+](=O)[O-])cc2Cl)n1,"inconclusive: 12.6 µM [inhibitor, single point]"
21,C=CCOC(=O)/C(=C/c1ccco1)NC(=O)/C=C/c1ccccc1,"inconclusive: 17.8 µM [inhibitor, single point]"
22,CCc1nn(CCCC(=O)NCc2ccccc2C)c(=O)c2cc3occc3n12,"inconclusive: 1.12 µM [inhibitor, full curve]"
23,COc1ccccc1NC(=S)NCC1CCC(CNC(=S)Nc2ccccc2OC)CC1 (stereo unspecified),"inconclusive: 3.98 µM [inhibitor, partial curve]"
24,Oc1ccc(CN2CCN(Cc3ccccc3)CC2)c2cccnc12,active: 10 µM

row,Structure (SMILES),Potency
1,COc1cc(C2NC(C(=O)O)CS2)ccc1OCc1ccccc1C#N (stereo unspecified),inactive
2,COc1ccc(C(=O)Nc2ccc(/C(C)=N/NC(=O)c3ccccc3O)cc2)cc1OC,"inconclusive: 1.12 µM [inhibitor, full curve]"
3,Cn1cc(Cl)c(C(=O)Nc2nc3ccc([N+](=O)[O-])cc3s2)n1,inactive
4,CCOC(=O)c1[nH]c(C)c(C(=O)OCCOc2cccc(C)c2)c1C,"inconclusive: 8.91 µM [inhibitor, partial curve]"
5,Cc1ccc(-c2csc(NC(=O)/C=C/c3cccs3)n2)cc1C,active: 11.2 µM
6,O=C(CSc1nc2ccccc2o1)N/N=C/c1ccco1,"inconclusive: 31.6 µM [inhibitor, single point]"
7,O=S(=O)(c1ccccc1)N1CCC(Oc2ccc(-n3cnnn3)cc2)CC1,"inconclusive: 31.6 µM [inhibitor, single point]"
8,O=C1NC(Cc2c[nH]c3ccccc23)C(=O)N1CCOc1ccc(F)cc1 (stereo unspecified),inactive
9,Cc1c(Cl)ccc2sc(NC(=O)C3CC3)nc12,"inconclusive: 14.1 µM [inhibitor, single point]"
10,COc1ccc(C)c2sc(=NC(=O)c3ccc(C(C)=O)cc3)n(C)c12,"inconclusive: 1.78 µM [inhibitor, partial curve, poor fit]"
11,COc1cccc(-c2cc(C(=O)Nc3ccccc3SC)no2)c1,"inconclusive: 10 µM [inhibitor, single point]"
12,COc1ccc(Nc2nc(N)c([N+](=O)[O-])c(NC3CCCCC3)n2)cc1,active: 11.2 µM
13,O=C(O)Cc1c[nH]c2ccc(O)cc12,inactive
14,CC(=O)c1ccccc1OCCOCCOCCOc1ccccc1C(C)=O,"inconclusive: 0.501 µM [inhibitor, full curve, poor fit]"
15,O=C1Nc2ccccc2N(O)N1c1ccc(Cl)cc1,inactive
16,COc1ccc(CNC(=O)CCCCCn2c(SCC#N)nc3cc4c(cc3c2=O)OCO4)cc1,"inconclusive: 7.94 µM [inhibitor, partial curve] and inconclusive: 1.58 µM [inhibitor, full curve]"
17,Cc1n[nH]c(=S)n1Cc1ccccc1,inactive
18,CCCOc1ccc(-c2nc(OC)c3ccccc3n2)cc1,"inconclusive: 31.6 µM [inhibitor, single point]"
19,O=C(Nc1ccc(Oc2ccccc2)cc1)c1cnc2n(c1=O)CCS2,"inconclusive: 2.51 µM [inhibitor, full curve]"
20,CCOC(=O)C1CCN(c2cc3c(cc2NC(=O)c2ccc(OC)c(OC)c2)n(C)c(=O)n3C)CC1,"inconclusive: 2.24 µM [inhibitor, partial curve, poor fit]"
21,COc1ccc(C)c2sc(N(CCN(C)C)C(=O)/C=C/c3cccs3)nc12,active: 14.1 µM
22,CCCc1ccc(-c2ccc(C(=O)O)cc2)nc1,inactive
23,COc1ccc2cc3cc(C(=O)Nc4ccccc4N4CCN(C)CC4)oc3nc2c1,active: 10 µM

# From PubChem BioAssay AID651820 (National Center for Advancing Translational Sciences (NCATS), 2012)
